# Experimental data from PubChem BioAssay AID1259418 (Broad Institute, 2018).
# Out of some 3,400 compounds screened, about 840 (25%) were called active. This list was built around the results that the source calls inconclusive (neither active nor inactive); the mix of calls is not that of the screen.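 The calls were made as follows: active = fitted half-maximal concentration of signal decrease at or below twice the sample's top tested concentration; inconclusive = flat curve between -70 and -30 percent, or poor fit; inactive = flat within 30 percent, signal rise, or potency above limit.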
# Experiment: T. gondii growth inhibition with IFN-gamma, dose response, cell-based, ME49Luc, HeLa, luciferase, 72 h (AID 1259418)
# Details: T. gondii ME49Luc in IFN-y HeLa, stronger effect = lower value, -100% = high-dose IFN-γ control wells; at 19.5 µM unless noted
row,SMILES,max activity
1,O=C(NC1CC1)c1ccc(-c2csc(C3CC3)n2)cc1,inconclusive: 227%
2,Cc1cccc(S(=O)(=O)N2CC[C@@H]3[C@@H](CO)Nc4ccc(-c5ccccc5F)cc4[C@@H]32)c1,inconclusive: -50.5%
3,Cc1ccc(-c2noc(-c3nnn(Cc4nc(-c5cccc(Cl)c5)oc4C)c3C)n2)cc1,inconclusive: 58.9%
4,O=C(Nc1ccc(-c2nc(-c3ccccc3)co2)cc1)C1CCCCC1,inactive: 11.6% [at 10 µM]
5,Cc1cccc(-c2ccc([C@H]3[C@@H](CO)N4CCCCN(S(=O)(=O)c5ccccc5F)C[C@@H]34)cc2)c1,inconclusive: -14.5% [at 0.16 µM]
6,C/C=C/c1ccc(C2[C@H]3CNC[C@@H]2N3S(=O)(=O)c2cccc(F)c2)cc1 (some centres undefined),inactive: 51.2%
7,Cc1cc(C(=O)Nc2ccc3c(c2)C(=O)N(C)[C@H]2CC[C@H](CC(=O)NCc4ccc(-c5ccccc5)cc4)O[C@H]2CO3)no1,inconclusive: -33.1%
8,COc1cccc(-c2nc3c(s2)CN(S(=O)(=O)c2cccc(Cl)c2)CC3)c1,inconclusive: 8.01% [at 5 µM]
9,COc1ccc(OCC(=O)N2CCC3(CC2)Nc2cc(F)ccc2-n2cccc23)cc1,inactive: 4.86% [at 10 µM]
10,Cc1nc(-c2ccc(C(=O)N3CCC(C)CC3)cc2)cs1,inactive: 19%
11,Cc1ccc(-c2coc(-c3ccc(NC(=O)Nc4cccc(F)c4)cc3)n2)c(C)c1,inconclusive: -45.4% [at 5 µM]
12,COc1cccc(CNC2=NCCNC23CCN(S(=O)(=O)c2ccc(C)cc2C)CC3)c1,inconclusive: -28.8%
13,CC(C)C#Cc1ccc([C@H]2[C@H](CO)N3C(=O)CN(C(=O)NC4CCCC4)C[C@@H]23)cc1,inconclusive: -16.8%
14,CN1C(=O)CCc2cc(NC(=O)c3ccc(F)cc3Cl)ccc21,inconclusive: -27.7% [at 0.16 µM]
15,COc1ccc(N(Cc2nc(-c3cccc(Cl)c3)oc2C)S(=O)(=O)c2ccccc2)cc1,inconclusive: -86.2% [at 5 µM]
16,CCc1ccc(S(=O)(=O)N2CCC3(CC2)NCCN=C3NCc2ccccc2C)cc1,inconclusive: -45.7%
17,COc1cccc(-c2nn(CC3CC3)c3c2[C@@H]2CN(Cc4ccccc4)C[C@@H]2C3)c1,inconclusive: -52.4%
18,O=C(C1CC2(CO1)CN(Cc1ccccc1)c1ccccc12)N1CCCC1 (centres undefined),inconclusive: -36.2% [at 4.6 µM]
19,Cc1ccc(S(=O)(=O)N2C[C@H](O)COC[C@@H]3O[C@H](CC(=O)NCc4ccc5c(c4)OCO5)CC[C@H]32)cc1,inconclusive: 15.3% [at 10 µM]
20,Cc1ccc(NC(=O)Nc2ccc(-c3nc(-c4ccc(C)cc4)co3)cc2)cc1,inactive: 24% [at 5 µM]
21,Oc1[nH]c2ccccc2c1N=Nc1nc(Nc2ccccc2)nc(N2CCOCC2)n1,inconclusive: -40.7% [at 1.2 µM]
22,Cc1cccc(-c2noc(-c3nnn(Cc4nc(-c5ccccc5)oc4C)c3C)n2)c1,inconclusive: -41.5% [at 5 µM]
23,COCC(=O)Nc1ccc(-c2nc(-c3ccc(C)cc3C)co2)cc1,inactive: 13.9% [at 0.16 µM]

row,SMILES,max activity
1,O=C(NCCCN1CCCC1=O)C1CCN(Cc2cc3ccccc3n2Cc2ccccc2)CC1,inactive: -6.87% [at 2.6 µM]
2,CCOc1ccccc1-c1nc(CN(c2ccc(OC)cc2)S(=O)(=O)c2cccs2)c(C)o1,inconclusive: -30.3% [at 0.16 µM]
3,O=C(CC1Nc2c3ccccc3nc(=S)n2C1=O)N1CCN(c2ccc(Cl)cc2)CC1 (centres undefined),inconclusive: 26% [at 0.16 µM]
4,O=C(NC1CCCC1)N1CC[C@H]2CN(Cc3cccc(Cl)c3)S(=O)(=O)[C@@H]2CC1,inconclusive: -24.1% [at 1.2 µM]
5,COc1ccc(-n2ncc3c(Nc4cccc(C)c4)ncnc32)cc1,inconclusive: 60.5% [at 10 µM]
6,Cc1ccc(CN2CC3CN(Cc4cccc(F)c4)CC3C2)s1 (centres undefined),inactive: 10.1%
7,COc1cc(NC(=O)CN2CCC3(CC2)N=C(c2cccc(C)c2)C(=O)N3)cc(OC)c1,inactive: -9.06% [at 2.6 µM]
8,CCc1nc(OCC(=O)Nc2cccc(Cl)c2)c2ccccc2n1,inactive: 20.4% [at 0.16 µM]
9,Cc1csc(-c2cc(S(=O)(=O)N3CCC(Cc4ccccc4)CC3)c(C)s2)n1,inactive: -11.8% [at 0.16 µM]
10,Cc1nc(CCNC(=O)C2CCN(C(=O)c3ccc(F)cc3)CC2)cs1,inactive: 11.3% [at 2.6 µM]
11,COc1cc(C(=O)Nc2ccc(-c3nc(-c4ccc(C)cc4)co3)cc2)cc(OC)c1OC,inactive: 54.9% [at 10 µM]
12,CC(C)CC#Cc1ccc([C@@H]2[C@@H](CO)N3C(=O)CN(C(=O)c4cccc(F)c4)C[C@H]23)cc1,inconclusive: -55.1% [at 21 µM]
13,O=C(Nc1ccc([N+](=O)[O-])cc1O)Nc1ccccc1Br,inconclusive: 111%
14,O=C(C1CCOCC1)N1CC(=O)N2[C@H](C1)[C@@H](c1ccc(C#CC3CCCCC3)cc1)[C@@H]2CO,inconclusive: -51.6%
15,COc1ccc(CNC(=O)CCC2N=C3c4ccccc4N=C(SCc4ccc(F)cc4)N3C2=O)cc1 (centres undefined),inconclusive: 31.6% [at 2.6 µM]
16,CCOc1ccc(-c2nc(CN3CCN(C(=O)Nc4ccccc4OC)CC3)c(C)o2)cc1,inconclusive: -24.9% [at 2.6 µM]
17,Cc1oc(-c2ccccc2)nc1CN(c1ccccc1)S(=O)(=O)c1cccs1,inactive: 8.04% [at 0.68 µM]
18,Cc1ccc2c(c1C)-n1cccc1C1(CCN(C(=O)Cc3ccc(F)cc3)CC1)N2,inactive: 11.4% [at 0.68 µM]
19,Cc1ccsc1C(=O)Nc1ccc2c(c1)CCC(=O)N2C,inconclusive: 240% [at 10 µM]
20,CCOc1ccc(-c2nc3c(s2)CN(S(=O)(=O)Cc2ccccc2)CC3)cc1,inactive: -19.9% [at 0.16 µM]
21,CCOc1cc(C(=O)N2CCC3(CC2)Nc2cc(F)ccc2-n2cccc23)cc(OCC)c1OCC,inconclusive: -21.1% [at 2.6 µM]
22,COc1ccc(CC(=O)Nc2ccc(-c3nc(-c4ccc(C)cc4C)co3)cc2)cc1,inactive: 23.3% [at 0.68 µM]
23,CC(=O)NCC(=O)N1CCC2(CC1)CC(c1ccccc1)C(=O)N2 (centres undefined),inactive: 28.8%

row,SMILES,max activity
1,COc1cccc(-c2nc(C)c(-c3ccc(SCc4ccc(Cl)cc4)nn3)s2)c1,inconclusive: 38.9%
2,CN1c2ccc(C#Cc3cccnc3)cc2[C@@H]2[C@@H](CCN2C(=O)c2cccc(F)c2)[C@@H]1CO,inconclusive: -37.7%
3,COc1ccc(-c2nc(NCc3ccccc3OC)c3ccccc3n2)cc1,inactive: -10.7% [at 0.68 µM]
4,Cc1ccc(-c2coc(-c3ccc(NC(=O)Nc4ccccc4F)cc3)n2)c(C)c1,inconclusive: -33.1% [at 0.16 µM]
5,Cc1ccccc1S(=O)(=O)N1C[C@@H]2N[C@H](C1)C2c1ccc(/C=C/c2ccccc2)cc1 (some centres undefined),inconclusive: 64.2% [at 10 µM]
6,CCOc1ccccc1-c1noc(-c2nnn(Cc3nc(-c4ccc(OC)cc4)oc3C)c2C)n1,inactive: 9.41% [at 1.35 µM]
7,CN1C(=O)CCc2cc(NC(=O)Cc3ccccc3Cl)ccc21,inconclusive: -22%
8,Clc1ccc(-n2ncc3c(NCc4ccccc4)ncnc32)cc1,inconclusive: -58.6% [at 0.35 µM]
9,Cc1ccc(CNC2=NCCNC23CCN(S(=O)(=O)c2ccc(Cl)s2)CC3)cc1,inconclusive: 44.9%
10,O=C(NCC1CC1)C1CN(C(=O)c2ccoc2)CC12CCOCC2 (centres undefined),inactive: 17.9% [at 10 µM]
11,Cc1ccc2c(c1C)-n1cccc1C1(CCN(C(=O)c3ccccc3)CC1)N2,inconclusive: -20.5% [at 0.16 µM]
12,CC(CCc1ccccc1)Nc1nc(-c2ccc(Cl)cc2)nc2ccccc12 (centres undefined),inactive: -14.3% [at 5 µM]
13,O=C(CC1N=C2c3ccccc3N=C(SCc3ccccc3Cl)N2C1=O)NC1CCCCC1 (centres undefined),inactive: 14%
14,CC(=O)O[C@@H]1CC2C(C)(CC[C@H](O)C2(C)C)C2CC[C@]3(C)C(=CC(=O)O[C@H]3c3ccoc3)C21C (some centres undefined),inconclusive: 42.7%
15,Clc1ccc(-c2nc(NC3CCN(Cc4ccccc4)CC3)c3ccccc3n2)cc1,inconclusive: -52.5% [at 5 µM]
16,Cc1ccc2c(c1C)-n1cccc1C1(CCN(C(=O)COc3ccccc3)CC1)N2,inactive: -7.11% [at 2.6 µM]
17,COc1cccc(S(=O)(=O)N2CCCCN3[C@H](CO)[C@H](c4ccc(C#CCC(C)C)cc4)[C@@H]3C2)c1,inconclusive: 56.9% [at 5 µM]
18,O=C(NCCc1csc(-c2ccccc2)n1)[C@H]1CSCN1C(=O)CCC1CCCC1,inconclusive: -30.2% [at 1.35 µM]
19,COc1ccc2c(c1)NC1(CCN(C(=O)c3ccc(C(C)(C)C)cc3)CC1)c1cccn1-2,inactive: -6.3% [at 0.35 µM]
20,O=S(=O)(c1ccccc1)N1CCc2c([nH]c3ccccc23)C1c1cc(F)ccc1F (centres undefined),inconclusive: 34.7%
21,COc1ccc2c(c1)NC1(CCN(C(=O)c3ccccc3Cl)CC1)c1cccn1-2,inactive: -5.12%
22,CCc1ccccc1Nc1nc(-c2ccc(OC)cc2)nc2ccccc12,inactive: -9.45% [at 0.16 µM]
23,Cc1cc(C(=O)Nc2ccc3c(c2)C(=O)N(C)[C@@H]2CC[C@H](CC(=O)NCc4ccc(-c5ccccc5)cc4)O[C@@H]2CO3)no1,inconclusive: -46% [at 2.6 µM]
